Laboratory results from a compilation of properties of binary mixtures (doi:10.1515/zpch-2013-0494).
Some of these densities may be calculated back from excess volumes.

Experiment: xn = mol fraction of the nth substance listed
Conditions: 101 kPa

CCCCCCCCCCCCCC[P+](CCCC)(CCCC)CCCC.CCCCCCCCCCCCc1ccccc1S(=O)(=O)[O-] + CCCCCCCCCCCC
mass density [kg/m3]
Conditions | x1 = 0.354 | x1 = 0.4844 | x1 = 0.6789 | x1 = 1
293.15 K | – | 907.4 | – | –
298.15 K | 881.2 | 904.2 | 928.6 | –
303.15 K | 877.9 | 900.9 | 925.2 | 952.5
308.15 K | 874.6 | – | 922 | –
313.15 K | – | – | 918.8 | 942.8
318.15 K | 868 | 891.2 | – | –
323.15 K | 864.8 | 888 | 912.5 | 936.6
328.15 K | – | 884.8 | – | –
333.15 K | 858.2 | 881.6 | 906.3 | 930.4
338.15 K | – | – | 903.2 | –
343.15 K | 851.6 | 875.2 | – | 924.3
348.15 K | 848.3 | 872 | 897 | –
353.15 K | 845 | 868.8 | – | 918.3
358.15 K | 841.7 | – | – | –
363.15 K | 838.4 | 862.4 | – | –

CCCCCCCCCCCCCC[P+](CCCCCC)(CCCCCC)CCCCCC.N#C[N-]C#N + CCCCCCCCCCCC
mass density [kg/m3]
Conditions | x1 = 0.5534 | x1 = 0.736 | x1 = 1
293.15 K | 868.8 | 885.6 | –
298.15 K | 865.8 | 882.6 | 899.8
303.15 K | 862.8 | 879.6 | –
308.15 K | – | 876.7 | –
313.15 K | 856.7 | – | 891.1
318.15 K | 853.7 | 870.9 | –
333.15 K | 844.7 | 862.1 | 880.2
338.15 K | 841.6 | 859.2 | –
343.15 K | – | 856.3 | 874.3
348.15 K | 835.6 | 853.4 | –
353.15 K | 832.6 | 850.5 | –
358.15 K | 829.6 | – | –
363.15 K | – | 844.6 | –

CC(CC(C)(C)C)CP(=O)([O-])CC(C)CC(C)(C)C.CCCCCCCCCCCCCC[P+](CCCCCC)(CCCCCC)CCCCCC + CCCCCCCCCCCC
mass density [kg/m3]
Conditions | x1 = 0.4684 | x1 = 0.6647 | x1 = 1
293.15 K | 858.5 | 873.2 | –
298.15 K | – | 870.2 | 887.5
303.15 K | 852.3 | 867.2 | –
308.15 K | – | 864.2 | –
313.15 K | 846 | 861.1 | 878.3
318.15 K | 842.8 | – | –
323.15 K | 839.7 | 855 | 872.3
328.15 K | 836.6 | 851.9 | –
333.15 K | 833.4 | 848.9 | 866.4
338.15 K | 830.3 | – | –
343.15 K | 827.1 | – | –
348.15 K | – | 839.8 | –
353.15 K | – | 836.8 | 854.5
